# “And” between values parts separate entries of the source, which are not always exact repeats. Equal entries are not always repeated. About 25,000 (6.9%) of roughly 360,000 compounds were called active. The inconclusive results got no clear call from the source; some entries with a clear call stand among them for comparison. The call rests on the fitted dose curve; in most records, active means well fitted inhibition curve with a large enough effect; inconclusive means small, poorly fitted or top-dose-only effect; inactive means flat fitted curve, though single readings scatter. Where the call is inconclusive, the potency comes from a doubtful curve fit.
# Molecular target: Luciferin 4-monooxygenase (Photinus pyralis) (UniProt P08659)
# Test: qHTS profiling assay for firefly luciferase inhibitor/activator using purifed enzyme and Km concentrations of substrates (counterscreen for miR-21 project); further: nearly all actives have a fitted effect of over 55% in size
# Settings: purified FLuc, luminescence inhibition; series mostly up to 57.5 µM
# Procedure, shortened: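 Purified P. pyralis luciferase, 10 nM final, with Km-level 10 uM D-luciferin and 10 uM ATP in 50 mM Tris acetate pH 7.5, 10 mM Mg acetate, 0.01% Tween-20, 0.05% BSA; 6-point qHTS titration about 60 µM downward; luminescence read.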
# Potency means the concentration at half of the fitted maximal effect; tags describe the fitted curve by direction and shape.
# Sequence of UniProt P08659 (P08659 whole entry, looked up): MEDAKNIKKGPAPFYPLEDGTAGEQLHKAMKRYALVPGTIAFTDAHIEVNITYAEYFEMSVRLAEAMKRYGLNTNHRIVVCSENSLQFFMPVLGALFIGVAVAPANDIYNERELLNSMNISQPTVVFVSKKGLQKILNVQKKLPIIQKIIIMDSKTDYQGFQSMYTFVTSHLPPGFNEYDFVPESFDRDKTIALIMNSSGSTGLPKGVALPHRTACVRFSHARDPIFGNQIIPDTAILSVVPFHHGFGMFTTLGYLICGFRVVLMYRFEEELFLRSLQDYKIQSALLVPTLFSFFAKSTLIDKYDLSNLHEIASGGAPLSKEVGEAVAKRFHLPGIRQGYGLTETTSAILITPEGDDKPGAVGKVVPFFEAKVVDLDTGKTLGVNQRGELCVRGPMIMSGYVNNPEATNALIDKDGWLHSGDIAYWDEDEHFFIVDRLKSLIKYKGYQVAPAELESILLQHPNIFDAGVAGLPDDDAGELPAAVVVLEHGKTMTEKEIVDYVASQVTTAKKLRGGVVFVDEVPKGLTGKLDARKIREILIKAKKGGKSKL
row,SMILES,Potency
1,Cc1cc(C)c(S(=O)(=O)Nc2ccc3oc4c(c3c2)CCCC4)cc1C,"inconclusive: 15.1 µM [inhibitor, partial curve, poor fit]"
2,COc1cc(/C=N/NC2=NC(C)(C)Cc3ccccc32)cc(OC)c1OC,"inconclusive: 16.9 µM [inhibitor, partial curve]"
3,CN(C(=O)COC(=O)COc1ccccc1Cc1ccccc1)c1ccccc1,"inconclusive: 8.49 µM [inhibitor, partial curve, poor fit]"
4,Cc1cc(OCc2ccc(C(=O)Nc3ccc(C(=O)O)cc3)o2)ccc1Cl,"inconclusive: 37.9 µM [inhibitor, single point]"
5,COc1ccc(C(=O)/C(C#N)=N/Nc2cccc([N+](=O)[O-])c2)cc1,"inconclusive: 23.9 µM [inhibitor, single point]"
6,C/C=C\C=C\C(=O)Nc1cccc(C2=NOC3(C2)C[C@H](C(N)=O)N(C(=O)c2ccccc2C(=O)c2ccccc2)C3)c1 (stereo partly drawn),active: 21.3 µM
7,COc1ccc(C2C=C(c3ccccc3)Nc3nc(NS(=O)(=O)c4ccccc4)nn32)cc1 (stereo not drawn),inactive
8,CCc1ccc(C(=O)CSc2nc(C)cc(=O)[nH]2)cc1,"inconclusive: 21.3 µM [inhibitor, single point]"
9,CCCNC(=O)c1ccc2c(c1)N=C(C)c1c(C)ccc(C)c1S2,"inconclusive: 13.5 µM [inhibitor, partial curve, poor fit]"
10,COC(=O)C1CCN(Cc2cn(Cc3ccccc3)nc2-c2cc3ccccc3o2)CC1,inactive
11,O=C(NCCCCc1ccccc1)c1ccc(Br)cc1,"inconclusive: 26.9 µM [inhibitor, partial curve, poor fit]"
12,CCOC(=O)C1CCN(C(=O)c2cc3ccc4cccnc4c3[nH]2)CC1,"inconclusive: 19 µM [inhibitor, partial curve]"
13,COC(=O)C1=C(C)N(Cc2ccc3c(c2)OCO3)C(=O)C1,inactive
14,c1ccc(CCNc2nc(-c3ccccn3)nc3ccccc23)cc1,"inconclusive: 16.9 µM [inhibitor, partial curve]"
15,CN(CC1CCCO1)S(=O)(=O)c1ccc(C(=O)Nc2nccs2)cc1 (stereo not drawn),"inconclusive: 23.9 µM [inhibitor, partial curve, poor fit]"
16,CCN1CCN(C(=S)Nc2ccc([N+](=O)[O-])cc2)CC1,"inconclusive: 23.9 µM [inhibitor, single point]"
17,O=C(N/N=C/c1cccs1)c1n[nH]c2c1CCCC2,active: 0.849 µM
18,Cc1ccc(NCC(=O)Nc2ccc(Br)cc2)cc1C,"inconclusive: 21.3 µM [inhibitor, single point]"
19,Cc1c(CC(=O)O)c(=O)oc2c(C)c(OCc3ccc(F)cc3Cl)ccc12,"inconclusive: 23.9 µM [inhibitor, single point]"
20,O=C(N/N=C/c1cn(-c2ccccc2)nc1-c1cc2ccccc2o1)c1ccccc1Br,active: 15.1 µM
21,COc1ccccc1CNC(=O)c1ccccc1NC(=O)c1nsc2ccccc12,"inconclusive: 30.1 µM [inhibitor, partial curve]"
22,C/C(=N/NS(=O)(=O)c1ccc(F)cc1)c1ccc(NC(=O)c2ccc(C)o2)cc1,"inconclusive: 23.9 µM [inhibitor, single point]"
23,S=c1[nH]nc(-c2ccccn2)n1/N=C/c1ccc(-c2ccccc2Br)o1,"inconclusive: 26.9 µM [inhibitor, partial curve]"

row,SMILES,Potency
1,CCOC(=O)c1cnc2cc(-c3ccc(Br)cc3)nn2c1C,"inconclusive: 12 µM [inhibitor, partial curve, poor fit]"
2,Cc1cccc(C(=O)Nc2cccc(C(=O)N/N=C/c3ccc4c(c3)OCO4)c2)c1,active: 1.9 µM
3,CCCn1c(/N=C/c2c[nH]c3ccccc23)nc2ccccc21,active: 2.69 µM
4,COCCN(C(=O)CNC(=O)c1ccco1)C(C(=O)NC1CCCC1)c1ccc(F)cc1 (stereo not drawn),inactive
5,Cc1c(N=C(N)/N=C(\N)Nc2ccccc2)c(=O)n(-c2ccccc2)n1C,inactive
6,COc1ccc(Br)cc1CNC(=O)Cn1c(=O)c2cccn2c2ccc(F)cc21,inactive
7,Cc1cc(C)c2oc(-c3cccc(NC(=O)c4ccc(Br)o4)c3)nc2c1,"inconclusive: 12 µM [inhibitor, partial curve]"
8,Cc1ccccc1Cn1cc(CCC(=O)NC(C)c2ccccc2)c2ccccc21 (stereo not drawn),inactive
9,COc1ccc(O)c(/C=N/NC(=S)NCCc2ccccc2)c1,"inconclusive: 23.9 µM [inhibitor, single point]"
10,O=C(Cc1ccccc1[N+](=O)[O-])NCCC1=CCCCC1,inactive
11,Cn1c(/C=C/c2cccc(Br)c2)nc2ccccc2c1=O,active: 15.1 µM
12,Nc1nnnn1/N=C/c1ccc(N2CCCCC2)c([N+](=O)[O-])c1,"inconclusive: 21.3 µM [inhibitor, partial curve, poor fit]"
13,CCc1ccc(OCC(=O)NC2CCCCC2)c(Br)c1,inactive
14,Cc1ccc(NC(=O)CN2C(=O)CSc3ccc(S(=O)(=O)N4CCCC4)cc32)cc1F,inactive
15,COc1cc(S(=O)(=O)N2CCOCC2)cc(C(=O)OCC(=O)NC2CCCCC2)c1OC,inactive
16,CCOc1ccc(/C=N/NC(=O)c2cc(-c3ccco3)nc3ccccc23)cc1,"inconclusive: 0.478 µM [inhibitor, full curve]"
17,Cc1ccc(NC(=O)c2c(NC(=O)c3ccco3)sc3c2CCC(C(C)(C)C)C3)c(C)c1 (stereo not drawn),inactive
18,CN1CCN(C(=O)c2ccccc2-c2nc(-c3ccccc3)no2)CC1,"inconclusive: 26.9 µM [inhibitor, single point]"
19,CC(C(=O)OCc1nnc(-c2ccccc2)o1)N1C(=O)C2CCCCC2C1=O (stereo not drawn),"inconclusive: 37.9 µM [inhibitor, partial curve, poor fit]"
20,O=C(CCNS(=O)(=O)c1ccccc1)OCc1nnc(-c2ccccc2)o1,"inconclusive: 26.9 µM [inhibitor, partial curve, poor fit]"
21,NS(=O)(=O)c1ccc(Nc2nc(-c3ccc(O)cc3O)cs2)cc1,"inconclusive: 33.8 µM [inhibitor, single point]"
22,CCOc1ccc2oc(C(=O)N3CCN(Cc4ccccc4)CC3)c(C)c2c1,"inconclusive: 19 µM [inhibitor, partial curve, poor fit]"
23,COc1ccc(OCc2nc3c4cc(OC)c(OC)cc4nc(=S)n3[nH]2)cc1,"inconclusive: 37.9 µM [inhibitor, partial curve, poor fit]"

row,SMILES,Potency
1,Cc1ccc(NC(=O)CSc2nc(C)c(Cc3ccccc3)c(=O)[nH]2)cc1,"inconclusive: 10.7 µM [inhibitor, partial curve] and inconclusive: 26.9 µM [inhibitor, single point]"
2,O=C(NCc1ccccc1Br)C1CCCN(C(=O)N2CCOc3ccccc32)C1 (stereo not drawn),"inconclusive: 2.69 µM [inhibitor, partial curve]"
3,CCOc1ccc(NC(=O)CCC(=O)NNC(=O)COc2ccccc2C)cc1,"inconclusive: 19 µM [inhibitor, partial curve]"
4,COc1ccc(CNC(=O)C2CC(=O)N(c3ccc(OCC(=O)N4C(C)CCCC4C)cc3)C2)cc1 (stereo not drawn),"inconclusive: 37.9 µM [inhibitor, partial curve, poor fit]"
5,CN1C(=O)c2ccc(NC(=O)c3ccc(Cl)cc3Cl)cc2C1=O,"inconclusive: 26.9 µM [inhibitor, partial curve, poor fit]"
6,CC(=O)Nc1ccc(NC2=CC(=O)c3ccccc3C2=O)cc1,"inconclusive: 12 µM [inhibitor, partial curve]"
7,O=C(Nc1ccc(Cl)cc1)N1CC=CCC1,active: 16.9 µM
8,CCN(CC)c1ccc(C(=O)N/N=C(\C)c2cccc(OC)c2)cc1,"inconclusive: 26.9 µM [inhibitor, single point]"
9,CCOc1ccc2nc(NC(=O)CSc3cn[nH]n3)sc2c1,active: 2.69 µM
10,O=C(CSc1ccccc1)N1CCc2ccccc21,active: 6.75 µM
11,Cn1cccc1C(=O)NC(=O)COC(=O)c1ccccc1O,inactive
12,CS(=O)(=O)N(CC(=O)Nc1ccccc1C(=O)N1CCOCC1)c1ccc(F)c(Cl)c1,inactive
13,Fc1ccc(-c2ccc(Nc3cccc(F)c3)nn2)cc1,"inconclusive: 2.39 µM [inhibitor, full curve]"
14,CCOc1ccc(CNC(=O)CCC(=O)N2CC3CCCN3c3ccccc32)cc1 (stereo not drawn),inactive
15,CC(=O)NS(=O)(=O)c1ccc(NC(=S)NC(=O)COc2ccccc2C)cc1,"inconclusive: 21.3 µM [inhibitor, single point]"
16,Cc1cc(NS(=O)(=O)c2ccc3nc(-c4ccccc4)[nH]c3c2)ccc1Br,"inconclusive: 21.3 µM [inhibitor, partial curve, poor fit]"
17,O=C(CN1C(=O)CSc2ccccc21)Nc1ccc2c(c1)OCCO2,"inconclusive: 33.8 µM [inhibitor, single point]"
18,C=CCOc1ccc2ccccc2c1/C=N/O,"inconclusive: 23.9 µM [inhibitor, partial curve, poor fit]"
19,CN(C)c1nc2ccc(OCCN3CCCCC3)cc2s1,"inconclusive: 21.3 µM [inhibitor, partial curve, poor fit]"
20,Cc1cc(C)c2c(=O)n(-c3ccccc3)[nH]c2n1,"inconclusive: 21.3 µM [inhibitor, single point]"
21,CCOC(=O)c1c(N)n(-c2ccccc2CC)c2nc3ccccc3nc12,inactive
22,Cc1ccc(NC(=S)Nc2cccc3cnccc23)cc1,"inconclusive: 30.1 µM [inhibitor, single point]"
